Data: the RNAGym collection of RNA variant scans (doi:10.1093/nar/gkz1192)
The source gives no read counts; variants with many changes may rest on few reads.

B1: CPEB3 Ribozyme (parent)
chain: UAACAGGGGGCCACAGCAGAAGCGUUCACGUCGCAGCCCCUGUCAGAUUCUGGUGAAUCUGCGAAUUCUGCUGUAUAUCUC

Variants of: B1
Experiment: self-cleavage, relative activity (ratio to wild type); higher = more cleavage; in vitro, sequencing
Method in brief: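 Relative activity was defined as the cleaved/total read fraction for a variant divided by the same fraction for the unmutated ribozyme. CPEB3 self-cleaving ribozyme libraries were made by rounds of error-prone PCR, barcoded, and transcribed in vitro with T7 RNA polymerase for 5 hours at 37°C, and cleavage ran through transcription plus a 15 min DNase I step before EDTA. Illumina sequencing of template-switched reverse transcripts gave the reads, and DNA sequencing mapped the barcodes. Averages come from three batches, using variants with at least 5 reads.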

Variant	self-cleavage
G10A A20G A35G C40U A47U	0.06
G10A A20G A45G A64G	0.07
G10A A20G A77G	0.49
G10A A20G C29U U72A U78C	0.06
G10A A20G U25C U78C	0.29
G10A A20G U43C A45U A56G A64U C68U	0.23
G10A A20U A35G	0.25
G10A A20U G36U A57U	0.04
G10A A20U U67C U80C	0.06
G10A A21G A45G U66A	0.08
G10A A21G G36A	0.22
G10A A21G U26G A64G U66C	0.07
G10A A21G U58C	0.08
G10A A21G U58C A64U	0.04
G10A A21U A35U U49A U54A	0.11
G10A A28G U41C A45C C50U	0.08
G10A A28G U48C U58C	0.06
G10A A28G U74C	0.2
G10A A35C C68G	0.02
G10A A35C U41C U49A A64G U66G U80C	0.04
G10A A35U A56G U60A U78A	0.2
G10A A35U U48C U76C	0.03
G10A A45G U54A A75C	0.09
G10A A45G U54C U60G U67C	0.09

Variant	self-cleavage
G10A A47U U60C A65G U69A	0.16
G10A C11U A13U U49C C79U	0.09
G10A C14G C39A	0.23
G10A C14U A56G G61A A64G	0.06
G10A C14U U25G U58C U66A G73A	0.04
G10A C27U A57U	0.27
G10A C29A U60C A65U	0.05
G10A C32A U54A U69C U74A	0.1
G10A C39U A56U	0.13
G10A C39U U49C A57G	0.11
G10A C40A U41C U43C U54A U66C U74C	0.03
G10A C40U A56G G61A U69A	0.04
G10A G16A A64U	0.08
G10A G22U U49A A57G U58C	0.11
G10A G24A U25C	0.22
G10A G24A U43A	0.33
G10A G30A U41A U51A A56G	0.04
G10A G30A U43A A47G U60A A65G	0.05
G10A G36C C40U U69C	0.1
G10A G53A U60G U80G	0.05
G10A U25A U26C C39A U72A	0.14
G10A U25C A35G U41C G46C	0.2
G10A U25C A35G U48A	0.27
G10A U25C A77U	0.39

Variant	self-cleavage
G10A U25C C29U A35G U51C A65G U67C	0.04
G10A U25C G33U A35U U54C	0.06
G10A U25C G42U	0.3
G10A U25C U31C A45U U67C	0.04
G10A U26A U43A	0.14
G10A U26C U48C U60C	0.04
G10A U26C U51A A57G U67C	0.05
G10A U26G U51C A56C U60A A64G U69C	0.04
G10A U31A A35G	0.45
G10A U31A G36C U69C	0.06
G10A U31A U41C	0.09
G10A U31A U49C	0.05
G10A U31C A45U U48C A56U	0.07
G10A U31C A56G U60A A64G U72A	0.08
G10A U31C A57G C62A	0.13
G10A U31C A64G U80C	0.18
G10A U31C G36C G53A A65U	0.07
G10A U31C U67C A77U	0.08
G10A U31C U80C	0.11
G10A U31G C32G U54C U58A U66C	0.03
G10A U31G U41G G55U U67C A75G	0.04
G10A U41A U49C U51C U69C	0.05
G10A U41A U80C	0.2
G10A U41C U49C U51C U69A	0.06

Variant	self-cleavage
G10A U41C U72C	0.81
G10A U49A C50U	0.07
G10A U49A U60A U69C	0.07
G10A U49C A64C A65G	0.27
G10A U49C G53U U78C	0.05
G10A U49G U51A U67C	0.11
G10A U54C A75G	0.13
G10A U60C U69C U72C U80A	0.12
G10A U60C U69G	0.35
G10A U66C U78C	0.05
G10C A13C U25C C27G U78C	0.15
G10C A15C A47G U72A	0.3
G10C A15G A47G C68U U69C U72A	0.07
G10C A15G G24A G36U G70C	0.09
G10C A15G G33U A35U U72C	0.14
G10C A18C U25C A56U U69A	0
G10C A18G C34G U67C C81U	0.12
G10C A20G U49C G63A U72C U76C	0.16
G10C A21G A77G	0.17
G10C A21G C29G G33C A35C U41C	0.05
G10C A28G G42A A45G U58A	0.12
G10C A28G U60C	0.12
G10C A35U A45G	0.08
G10C A45C U48C	0.14

Variant	self-cleavage
G10C C11A U74A	0.32
G10C C11G U26C U49A G52A	0.05
G10C C11U A18G C40U U43C A45U U54G	0.03
G10C C14A A20G U51A G52U	0.3
G10C C14G A18G A20G C40U U51A G52U	0.04
G10C C23U C40U A64U	0.05
G10C C23U U26C U48C	0.19
G10C C27G U31C A45G U58G A64U	0.13
G10C C29U U43C A47G U51C U54C U60C	0.08
G10C G16A U69C U74A	0.28
G10C G19U G55A A75G	0.04
G10C G42A U43C A45G U51A	0.05
G10C G46U U54A A56G	0.22
G10C U25A U51A U76C A77U U78A	0.06
G10C U25C C27A U31C C44A	0.06
G10C U25C U31A U80C	0.37
G10C U26C A45G	0.15
G10C U41G A57G	0.15
G10C U41G U48C U80A	0.04
G10C U43C U67C U74C	0.06
G10C U49A U58A U76C	0.25
G10C U54C U78A	0.19
G10U A13U C14A A18U C62G	0.12
G10U A15G A18G C29U U66G	0.07

Variant	self-cleavage
G10U A15U U25C A28G U60A	0.14
G10U A15U U54G	0.13
G10U A18G A20C C29U G53U U54G	0.12
G10U A18U A45G	0.01
G10U A20G A21G C38U U41A U74C U78C	0.03
G10U A20G U26A	0.05
G10U A21G A45G U67G	0.31
G10U A21G A47G U51A U74C	0.04
G10U A28G U51A U54A A64U	0.07
G10U A28U A77G U78C	0.3
G10U A28U C50A U67C	0.09
G10U A28U U41C A77U	0.16
G10U A35G A56G C68G	0.05
G10U A35U U78C	0.09
G10U A57G U60C	0.04
G10U A64G U78A	0.15
G10U C11G U25C C34G U43G	0.05
G10U C12G U26A U54C A57G U60A U67C	0.03
G10U C17A A18G G61U A77G	0.04
G10U C37U U51A U58C U78G U80C	0.05
G10U C40A U60A U66C U74C	0.05
G10U C40U U66C U74C	0.12
G10U G19C U41A G55U	0.05
G10U U25C U41C A57C C71A	0.14

Variant	self-cleavage
G10U U31C U43A U67G	0.05
G10U U41G U58C U60C	0.35
G10U U48A A56G A65G	0.04
G10U U54A A57G	0.2
G10U U54C G63A C68A	0.13
G10U U67C U72C A77U	0.13
G10U U74C U78A	0.26
C11A A13G A35U	0.12
C11A A13G U26C U41G	0.05
C11A A13G U41C	0.43
C11A A13G U60C U67C U69A	0.13
C11A A13G U69C	0.08
C11A A13G U72A A77G	0.23
C11A A15G A18U U51C U54G	0.06
C11A A15G C44U U54C A57U	0.09
C11A A15G U26C U72C U78G	0.06
C11A A15U A18C	0.47
C11A A15U A18U	0.3
C11A A15U A64U	0.04
C11A A18C U43A	0.11
C11A A18G U43C U58C U74A U78C	0
C11A A18G U72C	0.42
C11A A18U U51C U54G U60C	0.29
